Test results reported in the RNAGym collection of RNA variant scans (doi:10.7554/elife.90254).
Read counts are not given, so values of variants with three or more changes are uncertain.

B1: LINE1-mini (parent)
chain: GGCAGAGCUCAACACAGCGUGGCAAAGUGGCUGUGGCUAGACUGCC

Variants of: B1
Assay: self-cleavage, relative activity (ratio to wild type); higher = more cleavage; in vitro, sequencing; the parent is a self-cleaving ribozyme

Row | Variant | self-cleavage
1 | GGCACAGCUCAACACAGCUUGGCAUAGUGACUGUGGCUCGCCUGCC [G5C G19U A25U G30A A39C A41C] | 0.16
2 | GGCACAGCUCAACACAGCCUGGCAAAGUGGCUGUGGCUAUACUACC [G5C G19C G40U G44A] | 0.01
3 | GGCACAGCUCAACACAGCGUGGCAAAGUGGCUCUGGCUAGACUGCA [G5C G33C C46A] | 0.03
4 | GGCACAGCUCAACACAGCCUGGCAAAGUGGCUCUGGCUAGACUGCC [G5C G19C G33C] | 0.08
5 | GGCACAGCUCAACACAGCGUGGCAAAGUGUCUAUGGCUAGACUGCC [G5C G30U G33A] | 0.04
6 | GGCACACCUCAACACAGCGUGGCAAAGUGGCUGUGGCUAGUCUGCC [G5C G7C A41U] | 0.08
7 | GGCACAGCUCAACACAACGUGGCUAACUGGCUGUGGCUAGACUGCC [G5C G17A A24U G27C] | 0
8 | GGCACAGCUCAACACAGCGUCGCAAAGUGGCUGUGGCUAGACUGGC [G5C G21C C45G] | 0.03
9 | GGCACAGCUCAACACAGCGUGGCAAAGUAGCUGUGGAUAGACUGCC [G5C G29A C37A] | 0.03
10 | GGCACAGCUCAACACAGCGUGGCAAAGUGUCUGUGGGUAGACUGCC [G5C G30U C37G] | 0.11
11 | GGCACAGCUCAACACAGCGUGGCAAAGUGUUUGUGGUUAGGCUGCC [G5C G30U C31U C37U A41G] | 0.03
12 | GGCACAGCUCAACACAACGUGGCAAAGUGGCUGUGGCUAUACUGCC [G5C G17A G40U] | 0.04
13 | GGCACAGCUCAACACAGCGUGGCAAAGUGCCUGUGUCUAGACUGCC [G5C G30C G36U] | 0.04
14 | GGCACAGCUCAACACAGCAUGGCAAAGUGGCUGUAGCUAGACUGCC [G5C G19A G35A] | 0.03
15 | GGCACAUCUCAACUCAGCGUGGCAAAGUGGCUGUGGCUAGACUGAA [G5C G7U A14U C45A C46A] | 0.06
16 | GGCACAGCUCAACACAGCGUGGCAAAGUGGCUCUGGCAAGACUGCC [G5C G33C U38A] | 0.01
17 | GGCACAGCUCAACACAGCGUGGCAAAGUCGAUGUGGCUAGACUGAC [G5C G29C C31A C45A] | 0.04
18 | GGCACAGCUCAACACAGCGUGUAAAAGUGGCUGUGGCUAGAGUGCC [G5C G22U C23A C42G] | 1.79
19 | GGCACACCUCCACACAACGUGGCAAAGUGGCUGUGGAUAGACUGCC [G5C G7C A11C G17A C37A] | 0.02

Row | Variant | self-cleavage
20 | GGCACAGCUCAACACAACGUAGCAAAGUGGCUGUGGCUAGACUGGC [G5C G17A G21A C45G] | 0.01
21 | GGCACAUCUCAACACAGCGUGGCAAAGUGGCAGUGGCUAGACUGCC [G5C G7U U32A] | 0.21
22 | GGCACAGCUCAACACAGCGUGGCAAAAUGGCGGUGGCAAGACCGCC [G5C G27A U32G U38A U43C] | 0.04
23 | GGCACAGCUCAACACAAUGUCCUAAAGUGUCUGUGGCUAGACUGCU [G5C G17A C18U G21C G22C C23U G30U C46U] | 0.04
24 | GGCACAGCUCAACACAGCGUGGCAAAGUGGCUGUGGCUACAGUGCC [G5C G40C C42G] | 0.03
25 | GGCACAACUCAACACAGCGUGGCAGAGUGGCCGUGGCUAGACUGCC [G5C G7A A25G U32C] | 0.12
26 | GGCACACCUCAACACAGCGUGGCAAAGUGGCGGUGGCUAGACUGCC [G5C G7C U32G] | 0.04
27 | GGCACACCUCAACGCAUCGUGGCAAAGUGGCUGUAGCUAGACUGCC [G5C G7C A14G G17U G35A] | 0.05
28 | GGCACAACUCAACACAGAGUGGCCAAGUGGCUGUGGCUAGACUGCC [G5C G7A C18A A24C] | 0.06
29 | GGCACAGCUCAACACAGCCUGGCAAAGUGGCUUUCGCUAGACUGCC [G5C G19C G33U G35C] | 0.51
30 | GGCACAGCUCAACACAGCGUGGCAAAGUGCCUGUGGCUAGACUGCG [G5C G30C C46G] | 0.01
31 | GGCACAGCUCAACACAGCGUGUCAAAGUGGCUCUGGUUAGACUGCC [G5C G22U G33C C37U] | 0.04
32 | GGCACAGCUCAACACAGCGUGGCAAAGUGGCUGUGCCUUGACUGCC [G5C G36C A39U] | 0.06
33 | GGCACAGCUCAACACAGCGUGGCAAAGUGGCUGUGCCUCGACUGCC [G5C G36C A39C] | 0.09
34 | GGCACAGCUCAACACACCUUGGUAAAGCGUCUGUGGCUAGAAUGCC [G5C G17C G19U C23U U28C G30U C42A] | 0.01
35 | GGCACAGCUCAACACAGCCUGGCAAAGUGGCUGUGACUAGACAGCC [G5C G19C G36A U43A] | 0
36 | GGCACAUCUAAACUCAGCGUGGCAUAGUGGCUGUGGCUAGAGUGCC [G5C G7U C10A A14U A25U C42G] | 0.01
37 | GGCACAUCUCAACACAGCGUGGCAAAGUGGCUGUGGCUAGCCUGCC [G5C G7U A41C] | 0.24
38 | GGCACAGCUCAACACAGCGUGGCAAAGUGGCUGUGAAUAGACUGCC [G5C G36A C37A] | 0.04

Row | Variant | self-cleavage
39 | GGCACAGCUCAACACAGCGUAGUAAAGUGGCUGUGGGUAGACUGCC [G5C G21A C23U C37G] | 0.02
40 | GGCACAGCUCAACACAGCGUUGCAAAGUGACUGUGGCUAGACUGCC [G5C G21U G30A] | 0.08
41 | GGCACAGCUCAACACAGCGUAGCAAAGUGGCUGUGGCUAGACUUCC [G5C G21A G44U] | 0.07
42 | GGCACAGCUCAACACAGCUUGGCAAAGUGGAUGUGGCUAGACUGCC [G5C G19U C31A] | 0.01
43 | GGCACACCUCAACACAGUGUGCCAAAGUGGCUGUGGCUAGACUGCC [G5C G7C C18U G22C] | 0.04
44 | GGCACAUCUCAGCACAGCUUGGCAAAAUGGCUGCGGCUAGACUGUC [G5C G7U A12G G19U G27A U34C C45U] | 0.07
45 | GGCACAGCUCAACACAGCGUGUCAACGUGGCUGUGGCUAGACUGCC [G5C G22U A26C] | 0.06
46 | GGCACACCUCAACACAGCGCGGCAAAGUGGCUGUGGCUAGACUGCC [G5C G7C U20C] | 0.08
47 | GGCACAUCUCGACACAGCGUGGCAAAGUGGCUGUGGCUAGACUGCA [G5C G7U A11G C46A] | 0.04
48 | GGCACACGUAAACACAGCGUGGCAAAGUGGCUGUGGCUAGCCUGCC [G5C G7C C8G C10A A41C] | 0.02
49 | GGCACAGCUCAACACAGCGUGGCAAAGUGGCUGUGUCUAGACUGUC [G5C G36U C45U] | 0.08
50 | GGCACAGCUCAACACACCGUGACAAAGUGGCUGUGGCUAGACUGCC [G5C G17C G22A] | 0.06
51 | GGCACAGCUCAACACAGCGUGGCAAACUGGCUGUGGCUGGACUGCC [G5C G27C A39G] | 0.07
52 | GGCACAACUCACAACAGCGUAGCAAAGUGGCUGUGGCUAGACUGCC [G5C G7A A12C C13A G21A] | 0.25
53 | GGCACAGCUCAACACAGCUUGGAAAAGUGGCUGAGGCUGGACUGCC [G5C G19U C23A U34A A39G] | 0.02
54 | GGCACAGCUCAACACAGCAUGGCAAAGUGGCUGUGGGUAGACUGCC [G5C G19A C37G] | 0.03
55 | GGCACAGCUCAACACAGCGUCGGAAAGUGGCUGUGGCUAGACUGCA [G5C G21C C23G C46A] | 0.02
56 | GGCACACCUCAACAAAGCGAGGUAAAGGAGCUGAGGCUAGACUGCC [G5C G7C C15A U20A C23U U28G G29A U34A] | 0.01
